Test results as given in PubChem BioAssay AID485367 (National Center for Advancing Translational Sciences (NCATS), 2010).
About 560 (0.17%) of roughly 330,000 compounds were called active. Inconclusive results, whose numbers are uncertain, are shown with a selection of clear calls. Calls follow the shape of the dose curve; as a rule, active = well fitted inhibition curve with a large enough effect; inconclusive = small, poorly fitted or top-dose-only effect, or effect the other way; inactive = flat fitted curve, though single readings scatter. No potency is given beside an inconclusive call; the fits are too rough.

molecular target: ATP-dependent 6-phosphofructokinase (Trypanosoma brucei brucei) (UniProt O15648); assay: qHTS Assay to Find Inhibitors of T. brucei phosphofructokinase; also: nearly all actives have a fitted effect of over 60% in size;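 as to activity, negative = inhibition: 0% = uninhibited 1x PFK enzyme wells and -100% = no-enzyme wells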; conditions: T. brucei PFK, ADP-Glo luminescence; activity, negative = inhibition: at 57.5 µM (top of the series)
Method in brief: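 Activity is normalized to no-enzyme wells (full inhibition) and 1.25 nM enzyme wells (no inhibition). Reaction: 0.5 mM F6P, 0.1 mM ATP, 45 min RT, ADP-Glo luminescence; concentration-response curves fitted and classed by quality.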
Potency is read from the fitted curve at half-maximal effect; tags tell the direction and shape of the fitted curve.

Sequence of UniProt O15648 (O15648 whole entry, looked up): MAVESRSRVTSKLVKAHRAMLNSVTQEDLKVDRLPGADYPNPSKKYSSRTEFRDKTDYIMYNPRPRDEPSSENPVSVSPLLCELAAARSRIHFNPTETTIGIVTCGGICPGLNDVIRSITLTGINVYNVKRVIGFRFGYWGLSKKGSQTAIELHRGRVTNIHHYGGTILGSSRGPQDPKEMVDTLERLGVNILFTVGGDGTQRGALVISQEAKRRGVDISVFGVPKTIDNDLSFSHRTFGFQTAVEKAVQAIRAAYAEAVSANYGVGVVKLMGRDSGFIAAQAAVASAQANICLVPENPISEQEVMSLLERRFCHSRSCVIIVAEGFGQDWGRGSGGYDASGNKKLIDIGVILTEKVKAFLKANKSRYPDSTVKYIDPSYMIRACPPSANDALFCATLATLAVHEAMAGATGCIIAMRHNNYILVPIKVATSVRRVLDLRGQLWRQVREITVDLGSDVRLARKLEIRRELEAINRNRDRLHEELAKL

| Compound | Potency | activity, negative = inhibition |
| --- | --- | --- |
| Cc1noc(C)c1S(=O)(=O)N1CCN(c2ccccc2)CC1 | inconclusive [falling, single point] | – |
| CCCCC(C(=O)NC1CCCC1)N(C(=O)c1snc(C(N)=O)c1N)c1ccc(C)cc1 (stereo not given) | – | inactive: -0.928% |
| Cc1ccc(Cl)c2c1=NC(=O)C=2c1[nH]c(=S)[nH]c1O | inconclusive [activator, partial curve] | – |
| O=C(NC1CCN(C(=O)Nc2cccc(Cl)c2)CC1)C1CCCCC1 | inconclusive [falling, single point] | – |
| O=P(O)(CN1CCCCCC1)CN1CCCCCC1 | inconclusive [falling, single point] | – |
| O=C1Nc2ccccc2N(O)N1c1ccc(Cl)c(Cl)c1 | active: 10.7 µM | – |
| CCN1CCN(CCCNC(=O)CCC(=O)N2CCOc3ccc(Cl)cc32)CC1 | inconclusive [falling, single point] | – |
| O=C(Cn1cc2c(n1)CCCCC2)NC1CCN(Cc2ccccc2)CC1 | inconclusive [falling, single point] | – |
| CC1(C)CC(=O)C(C(c2ccco2)C2C(=O)CC(C)(C)CC2=O)C(=O)C1 | inconclusive [activator, single point] | – |
| O=C(c1cc2sccc2n1Cc1ccccc1)N1CCc2ccccc21 | – | inactive: 6.69% |
| Cc1ccccc1CSCC(=O)NC(=O)NCc1ccco1 | inconclusive [falling, single point] | – |
| Cc1nc(SCc2ccc(O)c([N+](=O)[O-])c2)c([N+](=O)[O-])[nH]1 | inconclusive [falling, partial curve] | – |
| CSCCCNC(=S)N1CCc2ccccc2C1 | inconclusive [falling, single point] | – |
| CCCNC(=O)Cc1ncn[nH]1 | inconclusive [falling, partial curve] | – |
| COc1ccc(-n2c(-c3cccc(C)c3[N+](=O)[O-])n[nH]c2=S)cc1 | inconclusive [activator, partial curve] | – |
| Cc1c(C(=O)Nc2ccc(-c3nnc4n3CCCCC4)cc2)oc2c1ccc1ccccc12 | – | inactive: 11.2% |
| O=[N+]([O-])c1ccc(CNc2cccc(F)c2)s1 | active: 13.5 µM | – |
| COc1ccc(C)cc1S(=O)(=O)N(CC(=O)NC1CCCC1)c1ccc(F)cc1 | – | inactive: -9.92% |
| O=[N+]([O-])c1cc(S(=O)(=O)O)cc([N+](=O)[O-])c1NN(c1ccccc1)c1ccccc1 | inconclusive [activator, single point] | – |
| C=CCn1c(SCC(=O)N2CCOCC2)nc2scc(-c3ccco3)c2c1=O | inconclusive [falling, partial curve] | – |
| CCn1nnc(NC(=S)NC(=O)c2ccc(-c3cccc(Cl)c3)o2)n1 | inconclusive [activator, single point] | – |
| COc1cc(/C=N\Nc2nc(-c3ccc(C)cc3)c(NC(C)=O)s2)ccc1O | – | inactive: 0% |
| Cc1ccc(C(=O)c2coc3cc([N+](=O)[O-])c(O)c([N+](=O)[O-])c23)cc1 | – | inactive: 3.51% |
| Cc1cc(NC(=O)CON=C(N)CC(=O)Nc2ccccc2Cl)ccc1Br | – | inactive: -1.08% |

| Compound | Potency | activity, negative = inhibition |
| --- | --- | --- |
| O=C1Nc2ccc(Br)cc2C1=Nc1cccnc1 | – | inactive: -8.01% |
| O=C(CCCn1c(SCC(=O)c2ccc(O)c(O)c2)nc2ccccc2c1=O)NCC1CCCO1 (stereo not given) | inconclusive [falling, full curve] | – |
| COc1ccc(S(=O)(=O)N2CCC(C(=O)c3ccc4c(c3)OCCO4)CC2)cc1 | – | inactive: -0.0948% |
| O=C(Nc1nc2ccccc2s1)NC1CCCCC1 | – | inactive: -2.63% |
| CCCCC(NC(=O)Cc1c(C)c2cc3c(-c4ccccc4)coc3c(C)c2oc1=O)C(=O)O (stereo not given) | inconclusive [falling, single point] | – |
| CN1CCN(CC(=O)NC2CCCCC2)CC1 | inconclusive [falling, single point] | – |
| CCc1nnc(/N=C/c2c(O)n(-c3ccc(Cl)cn3)c(=O)c3ccccc23)s1 | inconclusive [activator, single point] | – |
| COc1ccc(CCNC(=O)Cc2c(Cl)cccc2Cl)cc1 | inconclusive [activator, single point] | – |
| C=CCn1c(COc2ccccc2)nnc1SC(C)C(=O)N/N=C/c1cc(Cl)ccc1O (stereo not given) | – | inactive: -10.5% |
| COc1cc(/C=C(/C#N)C(=O)Nc2ccccc2)c(Br)cc1OCc1ccc(C(=O)O)cc1 | inconclusive [activator, partial curve] | – |
| Cc1cc(NC(=O)c2cnn3c(C(F)(F)F)cc(-c4ccccc4)nc23)no1 | – | inactive: 0.0208% |
| Cc1ccccc1Cn1cc(NC(=O)c2cc3nc(-c4ccco4)cc(C(F)(F)F)n3n2)cn1 | – | inactive: -1.39% |
| O=C1OC(c2ccccc2)=N/C1=C\C=C\c1ccco1 | – | inactive: -10.5% |
| Cc1ccc(SCC(=O)NC(=O)NCc2ccco2)c(C)c1 | inconclusive [falling, single point] | – |
| CC1=C/C(=C(\c2cc(C)c(O)c(Br)c2)c2ccccc2S(=O)(=O)O)C=C(Br)C1=O | inconclusive [falling, single point] | – |
| COc1ccccc1CC(=O)Nc1ccc2c(c1)C(=O)NC2=O | inconclusive [falling, partial curve] | – |
| Cn1ncc(Cl)c1C(=O)Nc1ccc2c(c1)CCC2 | inconclusive [falling, single point] | – |
| CCCC1=Nc2cc(C(=O)NCCCOC(C)C)ccc2Sc2ccccc21 | – | inactive: 5.24% |
| COc1cc(OC)c(-c2nn3c(C4CCCCC4)nnc3s2)cc1OC | – | inactive: -2.47% |
| Nc1c(N(Cc2ccco2)C(=O)COc2ccccc2)c(=O)[nH]c(=O)n1Cc1ccccc1 | – | inactive: 4.47% |
| O=c1oc2c(O)c(O)cc3c(=O)oc4c(O)c(O)cc1c4c23 | inconclusive [falling, partial curve, poor fit] | – |
| COC(=O)C1=C(N)Oc2cc(C)n(CC3CCCO3)c(=O)c2C1c1ccc(Cl)c(Cl)c1 (stereo not given) | inconclusive [falling, single point] | – |
| C=CCN1C(=O)/C(=C2/C(=O)N(CC(=O)O)c3ccccc32)S/C1=N/c1nccs1 | inconclusive [falling, partial curve] | – |
| CN1c2ccccc2C(C)(C)C12C=Nc1c(ccc3ccccc13)O2 (stereo not given) | inconclusive [falling, single point] | – |

| Compound | Potency | activity, negative = inhibition |
| --- | --- | --- |
| O=C(COc1ncnc2ccccc12)N1CCN(S(=O)(=O)c2ccc(Cl)cc2)CC1 | inconclusive [falling, single point] | – |
| COC(=O)c1ccc(NC(=O)CCS(=O)(=O)c2ccc(Br)cc2)cc1 | inconclusive [falling, single point] | – |
| CCN1CCN(C(=S)c2ccc(Cl)c(Cl)c2)CC1 | inconclusive [falling, partial curve] | – |
| NCCNc1ccc([N+](=O)[O-])c(Sc2nc3ccccc3[nH]2)c1 | inconclusive [activator, single point] | – |
| CS(=O)(=O)N1CC(C(=O)O)Oc2ccc(CC(=O)O)cc21 (stereo not given) | inconclusive [falling, single point] | – |
| COC(=O)C1C(=O)NC(SC)=C(C#N)C1c1ccccc1 (stereo not given) | – | inactive: 6.12% |
| COc1cccc(CNC(=O)c2ccccc2NC(=O)C2=C(C)OCCS2)c1OC | – | inactive: 0.06% |
| C/C(=C\C(=O)c1ccc(C)o1)Nc1ccc(C(=O)O)cc1C | inconclusive [falling, partial curve, poor fit] | – |
| O=C(COc1ccccc1)NCCSCc1ccco1 | inconclusive [falling, single point] | – |
| Cc1cccc(N2CSC3=C(C#N)C(c4ccc(C)o4)CC(=O)N3C2)c1 (stereo not given) | inconclusive [falling, partial curve] | – |
| O=C(Nc1cccc(S(=O)(=O)N2CCOCC2)c1)[C@@H]1CCCN1S(=O)(=O)c1ccc(Cl)cc1 | inconclusive [falling, single point] | – |
| OC(CCc1ccncc1)c1ccccc1 (stereo not given) | inconclusive [activator, single point] | – |
| Cc1ccc(C2=Nc3ccccc3SC(c3cccc([N+](=O)[O-])c3)C2)cc1 (stereo not given) | inconclusive [falling, partial curve] | – |
| NC(=O)SCC(=O)Nc1ccc(Cl)cc1 | inconclusive [falling, single point] | – |
| Cc1cccc(NC(=O)CSc2nc(NS(=O)(=O)c3ccccc3)cc(=O)[nH]2)c1 | inconclusive [falling, single point] | – |
| Cc1cc(-c2csc(NC(=O)c3ccc(=O)[nH]c3)n2)c(C)n1Cc1ccccc1 | inconclusive [activator, partial curve] | – |
| CCCCC(=O)NC(=S)Nc1cc(C(=O)O)ccc1Cl | inconclusive [activator, partial curve] | – |
| O=[N+]([O-])c1c(Nc2ccc(O)cc2)cc(Cl)c2nonc12 | inconclusive [falling, partial curve] | – |
| CCOCCCNc1ccc(-c2ccccc2)nn1 | – | inactive: -1.23% |
| O=C(NCCc1c[nH]c2ccc(Cl)cc12)c1cccnc1 | inconclusive [falling, single point] | – |
| COc1ccc(Cl)cc1S(=O)(=O)n1cnc2ccccc21 | inconclusive [activator, partial curve, poor fit] | – |
| CCOC(=O)Cc1csc(SCC(=O)Nc2sc3c(c2C(N)=O)CCC3)n1 | inconclusive [falling, partial curve] | – |
